This is one part of the list. Sequences were assembled here from the parent chain. Inactive controls read about 0.05.
B1: TEV protease; numbered along this chain (parent)
chain: MGESLFKGPRDYNPISSSICHLTNESDGHTTSLYGIGFGPFIITNKHLFRRNNGTLVVQSLHGVFKVKDTTTLQQHLVDGRDMIIIRMPKDFPPFPQKLKFREPQREERICLVTTNFQTKSMSSMVSDTSCTFPSGDGIFWKHWIQTKDGQCGSPLVSTRDGFIVGIHSASNFTNTNNYFTSVPKNFMELLTNQEAQQWVSGWRLNADSVLWGGHKVFMVKPEEPFQPVKEATQL

Variants of: B1
Test: raw area under fraction-flipped curve 0-4 h after induction (AUC4h, not background-subtracted), DNA-recorder readout of cleavage of the substrate (dimensionless); higher = more cleavage of the substrate by the protease variant
Conditions: temperature: 34 °C; time window: 0-4 h after rhamnose induction
Description: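 In vivo DNA recorder in E. coli TOP10(DE3) ΔrhaA at 34 °C. Each TEVp single-site mutant (parent TEVp 0) is paired with a single-site variant of the 7-mer TEVs (canonical ENLYFQ|S). The substrate sits between flexible linkers in a Bxb1-sfGFP-TEVs-SsrA fusion, so cleavage stabilises Bxb1 and speeds flipping of a recombination array, read by NGS. The value is the raw area under the fraction-flipped curve over 0-4 h after rhamnose induction (AUC4h), with ≥20 reads per time point. It is not background-subtracted; inactive controls average about 0.047.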
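Further: Bxb1 expression induced with 0.2% (w/v) L-rhamnose at OD600 near 0.5, cultures sampled hourly, flipped fraction per protease–substrate barcode pair counted by paired-end Illumina sequencing.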

Variant: MGESLFKGPRDYNPIVSSICHLTNESDGHTTSLYGIGFGPFIITNKHLFRRNNGTLVVQSLHGVFKVKDTTTLQQHLVDGRDMIIIRMPKDFPPFPQKLKFREPQREERICLVTTNFQTKSMSSMVSDTSCTFPSGDGIFWKHWIQTKDGQCGSPLVSTRDGFIVGIHSASNFTNTNNYFTSVPKNFMELLTNQEAQQWVSGWRLNADSVLWGGHKVFMVKPEEPFQPVKEATQL [S16V]
- area with substrate ENAYFQS: 0.0643
- area with substrate ENCYFQS: 0.0508
- area with substrate ENDYFQS: 0.0564
- area with substrate ENEYFQS: 0.0626
- area with substrate ENFYFQS: 0.0573
- area with substrate ENGYFQS: 0.0602
- area with substrate ENKYFQS: 0.041
- area with substrate ENMYFQS: 0.0726
- area with substrate ENNYFQS: 0.0606
- area with substrate ENPYFQS: 0.0552
- area with substrate ENQYFQS: 0.0636
- area with substrate ENRYFQS: 0.0615
- area with substrate ENSYFQS: 0.0751
- area with substrate ENVYFQS: 0.0772
- area with substrate ENWYFQS: 0.0181

Variant: MGESLFKGPRDYNPISWSICHLTNESDGHTTSLYGIGFGPFIITNKHLFRRNNGTLVVQSLHGVFKVKDTTTLQQHLVDGRDMIIIRMPKDFPPFPQKLKFREPQREERICLVTTNFQTKSMSSMVSDTSCTFPSGDGIFWKHWIQTKDGQCGSPLVSTRDGFIVGIHSASNFTNTNNYFTSVPKNFMELLTNQEAQQWVSGWRLNADSVLWGGHKVFMVKPEEPFQPVKEATQL [S17W]
- area with substrate ENAYFQS: 0.0537
- area with substrate ENCYFQS: 0.0576
- area with substrate ENDYFQS: 0.0509
- area with substrate ENEYFQS: 0.0545
- area with substrate ENFYFQS: 0.0629
- area with substrate ENGYFQS: 0.0837
- area with substrate ENHYFQS: 0.0643
- area with substrate ENIYFQS: 0.104
- area with substrate ENKYFQS: 0.0699
- area with substrate ENNYFQS: 0.0691
- area with substrate ENQYFQS: 0.0497
- area with substrate ENRYFQS: 0.0591
- area with substrate ENSYFQS: 0.0556
- area with substrate ENTYFQS: 0.065
- area with substrate ENVYFQS: 0.0915
- area with substrate ENWYFQS: 0.0535
- area with substrate ENYYFQS: 0.0599

Variant: MGESLFKGPRDYNPISSCICHLTNESDGHTTSLYGIGFGPFIITNKHLFRRNNGTLVVQSLHGVFKVKDTTTLQQHLVDGRDMIIIRMPKDFPPFPQKLKFREPQREERICLVTTNFQTKSMSSMVSDTSCTFPSGDGIFWKHWIQTKDGQCGSPLVSTRDGFIVGIHSASNFTNTNNYFTSVPKNFMELLTNQEAQQWVSGWRLNADSVLWGGHKVFMVKPEEPFQPVKEATQL [S18C]
- area with substrate ENAYFQS: 0.0902
- area with substrate ENCYFQS: 0.0683
- area with substrate ENDYFQS: 0.0572
- area with substrate ENFYFQS: 0.0629
- area with substrate ENGYFQS: 0.0707
- area with substrate ENHYFQS: 0.054
- area with substrate ENIYFQS: 0.114
- area with substrate ENMYFQS: 0.113
- area with substrate ENNYFQS: 0.065
- area with substrate ENPYFQS: 0.0552
- area with substrate ENQYFQS: 0.042
- area with substrate ENRYFQS: 0.0703
- area with substrate ENTYFQS: 0.067
- area with substrate ENVYFQS: 0.0803
- area with substrate ENYYFQS: 0.0384

Variant: MGESLFKGPRDYNPISSSRCHLTNESDGHTTSLYGIGFGPFIITNKHLFRRNNGTLVVQSLHGVFKVKDTTTLQQHLVDGRDMIIIRMPKDFPPFPQKLKFREPQREERICLVTTNFQTKSMSSMVSDTSCTFPSGDGIFWKHWIQTKDGQCGSPLVSTRDGFIVGIHSASNFTNTNNYFTSVPKNFMELLTNQEAQQWVSGWRLNADSVLWGGHKVFMVKPEEPFQPVKEATQL [I19R]
- area with substrate ENAYFQS: 0.0545
- area with substrate ENCYFQS: 0.049
- area with substrate ENDYFQS: 0.05
- area with substrate ENEYFQS: 0.0567
- area with substrate ENFYFQS: 0.047
- area with substrate ENGYFQS: 0.0503
- area with substrate ENHYFQS: 0.0443
- area with substrate ENIYFQS: 0.0605
- area with substrate ENKYFQS: 0.0497
- area with substrate ENNYFQS: 0.0468
- area with substrate ENQYFQS: 0.0644
- area with substrate ENRYFQS: 0.0766
- area with substrate ENSYFQS: 0.0524
- area with substrate ENTYFQS: 0.0422
- area with substrate ENVYFQS: 0.0466
- area with substrate ENWYFQS: 0.0555
- area with substrate ENYYFQS: 0.0262

Variant: MGESLFKGPRDYNPISSSICPLTNESDGHTTSLYGIGFGPFIITNKHLFRRNNGTLVVQSLHGVFKVKDTTTLQQHLVDGRDMIIIRMPKDFPPFPQKLKFREPQREERICLVTTNFQTKSMSSMVSDTSCTFPSGDGIFWKHWIQTKDGQCGSPLVSTRDGFIVGIHSASNFTNTNNYFTSVPKNFMELLTNQEAQQWVSGWRLNADSVLWGGHKVFMVKPEEPFQPVKEATQL [H21P]
- area with substrate ENAYFQS: 0.0519
- area with substrate ENCYFQS: 0.0451
- area with substrate ENDYFQS: 0.052
- area with substrate ENEYFQS: 0.0524
- area with substrate ENFYFQS: 0.0487
- area with substrate ENGYFQS: 0.0443
- area with substrate ENHYFQS: 0.0491
- area with substrate ENIYFQS: 0.0624
- area with substrate ENKYFQS: 0.0104
- area with substrate ENMYFQS: 0.0499
- area with substrate ENNYFQS: 0.0608
- area with substrate ENPYFQS: 0.052
- area with substrate ENQYFQS: 0.051
- area with substrate ENRYFQS: 0.0364
- area with substrate ENSYFQS: 0.0517
- area with substrate ENTYFQS: 0.0513
- area with substrate ENVYFQS: 0.0662

Variant: MGESLFKGPRDYNPISSSICHLPNESDGHTTSLYGIGFGPFIITNKHLFRRNNGTLVVQSLHGVFKVKDTTTLQQHLVDGRDMIIIRMPKDFPPFPQKLKFREPQREERICLVTTNFQTKSMSSMVSDTSCTFPSGDGIFWKHWIQTKDGQCGSPLVSTRDGFIVGIHSASNFTNTNNYFTSVPKNFMELLTNQEAQQWVSGWRLNADSVLWGGHKVFMVKPEEPFQPVKEATQL [T23P]
- area with substrate ENAYFQS: 0.0405
- area with substrate ENCYFQS: 0.0379
- area with substrate ENDYFQS: 0.0307
- area with substrate ENEYFQS: 0.0427
- area with substrate ENFYFQS: 0.0413
- area with substrate ENGYFQS: 0.0405
- area with substrate ENHYFQS: 0.0626
- area with substrate ENIYFQS: 0.0403
- area with substrate ENNYFQS: 0.0358
- area with substrate ENPYFQS: 0.0514
- area with substrate ENQYFQS: 0.0493
- area with substrate ENRYFQS: 0.0508
- area with substrate ENTYFQS: 0.0373
- area with substrate ENVYFQS: 0.0357
- area with substrate ENYYFQS: 0.0557

Variant: MGESLFKGPRDYNPISSSICHLTCESDGHTTSLYGIGFGPFIITNKHLFRRNNGTLVVQSLHGVFKVKDTTTLQQHLVDGRDMIIIRMPKDFPPFPQKLKFREPQREERICLVTTNFQTKSMSSMVSDTSCTFPSGDGIFWKHWIQTKDGQCGSPLVSTRDGFIVGIHSASNFTNTNNYFTSVPKNFMELLTNQEAQQWVSGWRLNADSVLWGGHKVFMVKPEEPFQPVKEATQL [N24C]
- area with substrate ENAYFQS: 0.059
- area with substrate ENDYFQS: 0.0392
- area with substrate ENGYFQS: 0.0059
- area with substrate ENHYFQS: 0.0536
- area with substrate ENKYFQS: 0.056
- area with substrate ENMYFQS: 0.0734
- area with substrate ENNYFQS: 0.0622
- area with substrate ENPYFQS: 0.0632
- area with substrate ENQYFQS: 0.0647
- area with substrate ENRYFQS: 0.0625
- area with substrate ENSYFQS: 0.0663
- area with substrate ENVYFQS: 0.0734
- area with substrate ENWYFQS: 0.0577
- area with substrate ENYYFQS: 0.0474

Variant: MGESLFKGPRDYNPISSSICHLTHESDGHTTSLYGIGFGPFIITNKHLFRRNNGTLVVQSLHGVFKVKDTTTLQQHLVDGRDMIIIRMPKDFPPFPQKLKFREPQREERICLVTTNFQTKSMSSMVSDTSCTFPSGDGIFWKHWIQTKDGQCGSPLVSTRDGFIVGIHSASNFTNTNNYFTSVPKNFMELLTNQEAQQWVSGWRLNADSVLWGGHKVFMVKPEEPFQPVKEATQL [N24H]
- area with substrate ENAYFQS: 0.0571
- area with substrate ENDYFQS: 0.0535
- area with substrate ENFYFQS: 0.0542
- area with substrate ENIYFQS: 0.0895
- area with substrate ENKYFQS: 0.0519
- area with substrate ENMYFQS: 0.0721
- area with substrate ENQYFQS: 0.0565
- area with substrate ENRYFQS: 0.0573
- area with substrate ENSYFQS: 0.0576
- area with substrate ENTYFQS: 0.0416
- area with substrate ENVYFQS: 0.0588
- area with substrate ENYYFQS: 0.0867

Variant: MGESLFKGPRDYNPISSSICHLTQESDGHTTSLYGIGFGPFIITNKHLFRRNNGTLVVQSLHGVFKVKDTTTLQQHLVDGRDMIIIRMPKDFPPFPQKLKFREPQREERICLVTTNFQTKSMSSMVSDTSCTFPSGDGIFWKHWIQTKDGQCGSPLVSTRDGFIVGIHSASNFTNTNNYFTSVPKNFMELLTNQEAQQWVSGWRLNADSVLWGGHKVFMVKPEEPFQPVKEATQL [N24Q]
- area with substrate ENAYFQS: 0.0657
- area with substrate ENDYFQS: 0.064
- area with substrate ENEYFQS: 0.0627
- area with substrate ENFYFQS: 0.0629
- area with substrate ENGYFQS: 0.0631
- area with substrate ENHYFQS: 0.0448
- area with substrate ENIYFQS: 0.116
- area with substrate ENKYFQS: 0.0631
- area with substrate ENNYFQS: 0.0578
- area with substrate ENPYFQS: 0.0683
- area with substrate ENQYFQS: 0.0675
- area with substrate ENRYFQS: 0.0701
- area with substrate ENSYFQS: 0.0603
- area with substrate ENTYFQS: 0.0438
- area with substrate ENVYFQS: 0.082

— the supplement of paper PMC12217912
